# The supplement of paper PMC9174493
# This is one part of the list. Single values of this set are uncertain. Values with irradiation are relative to irradiated vehicle.
# Key:
# A549-Dual [1] = experiment: NF-kB reporter (SEAP) activity, viability-corrected, relative to vehicle (fold change vs vehicle); higher = more activation of STING-IRF / NF-kB immune response reporter; details: 10 µM
# A549-Dual [2] = experiment: ISRE reporter (Lucia luciferase) activity, viability-corrected, relative to vehicle (fold change vs vehicle); higher = more activation of STING-IRF / NF-kB immune response reporter; details: 10 µM
# 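For NF-kB reporter (SEAP) activity, viability-corrected, relative to vehicle in this document: viability correction based on the alamar blue assay, with concentrations leaving 10% survival or less dropped.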
Compound,NF-kB reporter (A549-Dual [1]; irradiation: 8 Gy/4 fr),NF-kB reporter (A549-Dual [1]; irradiation: none),ISRE reporter (A549-Dual [2]; irradiation: 8 Gy/4 fr),ISRE reporter (A549-Dual [2]; irradiation: none)
C[N+](C)(C)CC(O)CC(=O)O.[Cl-] (racemic) [DL-Carnitine HCl],0.887,1.08,0.921,0.959
CC(=O)c1c(O)c(C)c(O)c2c1OC1=CC(=O)C(C(C)=O)C(=O)C12C (configuration not stated) [Usnic acid],0.653,0.796,0.57,0.46
CCC(=O)NCCC1CCc2ccc3c(c21)CCO3 (configuration not stated) [Ramelteon],0.68,0.888,0.686,0.767
O=C1C(N(CO)C(=O)NCO)N(CO)C(=O)N1CO (configuration not stated) [Diazolidinyl urea],1.19,0.887,1.2,0.733
Cl.N=C(N)NC(=N)NCCc1ccccc1 [Phenformin HCl],0.503,0.663,0.302,0.49
COC(=O)C1C(O)CCC2CN3CCc4c([nH]c5ccccc45)C3CC21.Cl (configuration not stated) [Yohimbine HCl],0.82,0.702,0.665,0.456
CC1OC(OC2C(Oc3cc(O)c(C(=O)CCc4ccc(O)cc4)c(O)c3)OC(CO)C(O)C2O)C(O)C(O)C1O (configuration not stated) [Naringin Dihydrochalcone],1.17,0.567,1.1,0.668
COc1ccnc(CS(=O)c2nc3ccc(OC(F)F)cc3[nH]2)c1OC (configuration not stated) [Pantoprazole],0.665,0.97,0.696,0.794
C[N+](C)(C)CC(=O)[O-] [Betaine],0.821,0.776,0.655,0.625
COc1cc2c(cc1OC)C(=O)C(CC1CCN(Cc3ccccc3)CC1)C2 (configuration not stated) [Donepezil],0.813,0.698,1.36,0.91
CC(=O)c1ccc(S(=O)(=O)NC(=O)NC2CCCCC2)cc1 [Acetohexamide],1.06,0.735,0.916,0.63
CN(C)CCCN1c2ccccc2Sc2ccc(Cl)cc21.Cl [Chlorpromazine HCl],1.09,1.25,0.998,2.07
Clc1ccc(COC(Cn2ccnc2)c2ccc(Cl)cc2Cl)cc1.O=[N+]([O-])O (configuration not stated) [Econazole nitrate],0.408,0.57,0.333,0.523
C[n+]1ccccc1/C=N/O.[Cl-] [Pralidoxime chloride],0.781,0.755,0.782,0.63
CC(C)NCC(O)COc1ccc(CCOCC2CC2)cc1 (configuration not stated) [Betaxolol],0.654,0.882,0.763,0.938
COCCc1ccc(OCC(O)CNC(C)C)cc1.COCCc1ccc(OCC(O)CNC(C)C)cc1.O=C(O)CCC(=O)O (configuration not stated) [Metroprolol succinate],0.985,1.66,0.691,0.731
C=CC1CC1(NC(=O)C1CC(Oc2ncc(OC)c3ccc(Cl)cc23)CN1C(=O)C(NC(=O)OC(C)(C)C)C(C)(C)C)C(=O)NS(=O)(=O)C1CC1 (configuration not stated) [Asunaprevir],0.654,1.44,0.686,2.39
O=C(Nc1ccc2c(=O)cc(-c3nnn[nH]3)oc2c1)c1ccc(OCCCCc2ccccc2)cc1 [Pranlukast],0.43,0.45,0.65,0.468
Cc1ccc(NC(=O)c2ccc(CN3CCN(C)CC3)cc2)cc1Nc1nccc(-c2cccnc2)n1 [Imatinib (STI571)],0.862,0.855,0.809,1.08
C[N+](C)(C)C[C@H](O)CC(=O)O.[Cl-] [L-Carnitine hydrochloride],0.74,0.832,0.748,0.658
NCCCCC(N)C(=O)O.O=C(O)COc1nn(Cc2ccccc2)c2ccccc12 [Bendazac L-lysine],1.55,0.728,1.51,0.891
Cl.c1ccc(Nc2ccccc2)cc1 [Diphenylamine Hydrochloride],1.16,0.97,0.963,0.637
CCCCCCCCCCCCCCCC(=O)OC1C(SC)OC(C(NC(=O)C2CC(CCC)CN2C)C(C)Cl)C(O)C1O.Cl (configuration not stated) [Clindamycin palmitate HCl],0.847,0.954,1.02,0.826
OCC1OC(c2ccc(F)c(Cc3cc4ccccc4s3)c2)C(O)C(O)C1O (configuration not stated) [Ipragliflozin (ASP1941)],0.882,0.948,0.899,1.11
O=C(/C=C/c1ccc(O)c(O)c1)OC1CC(O)(C(=O)O)CC(O)C1O (configuration not stated) [Chlorogenic Acid],0.925,0.769,1.04,0.941
O=C(CCCN1CC=C(n2c(=O)[nH]c3ccccc32)CC1)c1ccc(F)cc1 [Droperidol],1.05,0.959,1.28,1.11
Cl.NCc1ccc(S(N)(=O)=O)cc1 [Mafenide hydrochloride],0.704,0.917,0.742,0.864

Compound,NF-kB reporter (A549-Dual [1]; irradiation: 8 Gy/4 fr),NF-kB reporter (A549-Dual [1]; irradiation: none),ISRE reporter (A549-Dual [2]; irradiation: 8 Gy/4 fr),ISRE reporter (A549-Dual [2]; irradiation: none)
COc1cccc(-c2c(C)n(Cc3c(F)cccc3C(F)(F)F)c(=O)n(CC(NCCCC(=O)[O-])c3ccccc3)c2=O)c1F.[Na+] (configuration not stated) [Elagolix Sodium],0.675,1.09,0.785,1.03
O=c1cc(-c2ccc(O)c(O)c2)oc2cc(O)cc(O)c12 [Luteolin],1.1,0.722,1.06,0.999
CC(=O)C1CCC2C3CCC4=CC(=O)CCC4(C)C3CCC12C (configuration not stated) [Progesterone],0.453,0.777,0.247,0.443
CCN(CC)CCOC(=O)c1ccc(N)cc1 [Procaine],0.723,1.01,0.659,0.699
O=C1/C(=C2\Nc3ccc(S(=O)(=O)[O-])cc3C2=O)Nc2ccc(S(=O)(=O)[O-])cc21.[Na+].[Na+] [Indigo carmine],0.984,0.747,0.955,0.561
CC(O)C(CO)NC(=O)C1CSSCC(NC(=O)C(N)Cc2ccccc2)C(=O)NC(Cc2ccccc2)C(=O)NC(Cc2c[nH]c3ccccc23)C(=O)NC(CCCCN)C(=O)NC(C(C)O)C(=O)N1 (configuration not stated) [Octreotide Acetate],1.12,0.655,1.13,0.71
COS(=O)(=O)[O-].C[n+]1c2ccccc2nc2ccccc21 [Phenazine methosulfate],1.88,3.42,0.35,1.09
Cl.NC(CO)C(=O)NNCc1ccc(O)c(O)c1O (configuration not stated) [Benserazide HCl],0.759,1.12,0.83,1.25
Cc1ccc(S(=O)(=O)NC(=O)NN2CC3CCCC3C2)cc1 (configuration not stated) [Gliclazide],0.773,0.841,0.821,0.863
Cl.O.O=C(O)c1cn(C2CC2)c2cc(N3CCNCC3)c(F)cc2c1=O [Ciprofloxacin hydrochloride hydrate],0.918,0.871,0.811,0.667
COCCCN1CCC(NC(=O)c2cc(Cl)c(N)c3c2OCC3)CC1.O=C(O)CCC(=O)O [Prucalopride Succinate],0.735,1.07,0.691,0.754
CC1CCc2cc(F)cc3c(=O)c(C(=O)O)cn1c23 (configuration not stated) [Flumequine],1.06,1.09,1.02,0.873
Nc1ncc2ncn(CC3(OCP(=O)(O)O)CC3)c2n1 [Besifovir],0.992,0.809,1.01,0.607
CCOC(=O)c1ccc(N)cc1 [Benzocaine],0.849,0.823,0.767,0.858
Oc1c(Br)cc(Br)c2cccnc12 [Broxyquinoline],0.542,0.809,0.407,0.403
O=C(O)CC(O)(CC(=O)O)C(=O)O [Citric acid],0.924,0.88,0.885,0.781
Brc1c(NC2=NCCN2)ccc2nccnc12.O=C(O)C(O)C(O)C(=O)O [Brimonidine Tartrate],1.19,0.779,1.09,0.771
CCC(C)CCCC(=O)NC(CCN)C(=O)NC(C(=O)NC(CCN)C(=O)NC1CCNC(=O)C(C(C)O)NC(=O)C(CCN)NC(=O)C(CCN)NC(=O)C(CC(C)C)NC(=O)C(CC(C)C)NC(=O)C(CCN)NC1=O)C(C)O.CCC(C)CCCC(=O)NC(CCN)C(=O)NC(C(=O)NC(CCN)C(=O)NC1CCNC(=O)C(C(C)O)NC(=O)C(CCN)NC(=O)C(CCN)NC(=O)C(CC(C)C)NC(=O)C(CC(C)C)NC(=O)C(CCN)NC1=O)C(C)O.O=S(=O)(O)O.O=S(=O)(O)O.O=S(=O)(O)O.O=S(=O)(O)O.O=S(=O)(O)O (configuration not stated) [Colistin Sulfate],1.05,1.11,0.933,1.23
C=CCOc1ccccc1OCC(O)CNC(C)C.Cl (configuration not stated) [Oxprenolol HCl],0.972,0.93,0.931,0.952
CC(=O)NO [Acetohydroxamic acid],0.992,1,0.812,0.648
CC(C)(CO)C(O)C(=O)NCCCO (racemic) [DL-Panthenol],1.29,0.85,1.08,0.641
CCn1cc(C(=O)O)c(=O)c2cc(F)c(N3CCNCC3)nc21 [Enoxacin Sesquihydrate],0.873,0.973,0.852,0.776
CCOC(=O)NC1CCC2C(C1)CC1C(=O)OC(C)C1C2/C=C/c1ccc(-c2cccc(F)c2)cn1 (configuration not stated) [Vorapaxar],0.668,1.1,0.736,1.59
Nc1nc(O)c2c(n1)NCC(CNc1ccc(C(=O)NC(CCC(=O)[O-])C(=O)[O-])cc1)N2C=O.[Ca+2] (configuration not stated) [Calcium folinate],0.941,0.658,0.971,0.802
O=C(Cn1ccnc1[N+](=O)[O-])NCc1ccccc1 [Benznidazole],0.671,1.07,0.589,0.92
CCCc1nc(C(C)(C)O)c(C(=O)O)n1Cc1ccc(-c2ccccc2-c2nnn[nH]2)cc1 [Olmesartan],0.762,1.2,0.745,0.749
